From paper PMC12040169 (PLOS Biology, 2025)
Read-outs that look alike come from different tables or passages of the source. This is one part of the list.

System: T1, C. trachomatis L2/434/Bu expressing GFP (CTL2-GFP)
T1 construct: L2/434/Bu GFP intracellular growth in HeLa cells
Parameters: species or system HeLa; C. trachomatis total inclusion area by high-content imaging, normalised to DMSO
Method in brief: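 Bulk GFP and resorufin signals were read first. Wells were then fixed, stained with Hoechst and imaged to detect GFP inclusions and host nuclei. MICs followed the previously described calculation.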

[1] = total inclusion area; 28.5 h, 10 µM; inhibitor

Row | Structure (SMILES) | % of control remaining [1] | % of control remaining (total inclusion area, 28.5 h, 10 µM, inhibitor)
1 | COC(=O)CCc1ccc(S(=O)(=O)N2CCCN(Cc3c[nH]c(=O)[nH]c3=O)CC2)cc1 [CBK063082] | 71.8009 | –
2 | N#Cc1ccc(CN2CCCCC2c2[nH]ncc2C(N)=O)c(Cl)c1 (centres unmarked) [CBK304261] | 49.5545 | –
3 | Cc1cccc(CN2CCC(NC(=O)c3cn(C(C)(C)C)nn3)CC2)c1 [CBK305927] | 23.6729 | –
4 | c1ccc(-c2csc3ncnc(-n4cnc5ccccc54)c23)cc1 [CBK264494] | 94.2758 | –
5 | Nc1nnc(Sc2nccc(C(F)(F)F)n2)s1 [CBK020023] | 85.7776 | –
6 | Cc1ccc(C(=O)NC(=S)Nc2ccc(C(=O)O)c(Cl)c2)cc1Cl [CBK265068] | 102.636 | –
7 | O=C(O)CCC(=O)N1CCN(C2CCCCC2)CC1 [CBK286918] | 93.2235 | –
8 | CN(C)c1cccc(-c2cc(NC3CCCCC3)ncn2)c1 [CBK090900] | 93.8021 | –
9 | Cc1cc(C)nc(SCc2nc(N)nc(-c3ccccc3O)n2)n1 [CBK266725] | 115.48 | –
10 | Cc1cccn2c(=O)c(/C=C3\SC(=S)NC3=O)c(NCCCN3CCOCC3)nc12 [CBK264904] | 105.16 | –
11 | O=C(NCCc1noc(CO)n1)N(Cc1ccsc1)C1CCCCC1 [CBK307273] | 78.5447 | –
12 | O=C(Cc1c[nH]c2ccccc12)N1CCC2(CCN(C(=O)CC3CCCCC3)C2)C1 (centres unmarked) [CBK131422] | 80.3276 | –
13 | O=C(Nc1cccc(-c2nc3ncccc3o2)c1)c1ccc(OCc2ccccc2)cc1 [CBK263139] | 95.6174 | –
14 | CC1=C[C@@H](CO)[C@H](C(C)C)C[C@H]1Cc1nnc(-c2ccc(N(C)C)cc2)o1 [CBK289224] | 20.6104 | –
15 | COC(=O)CNC(=O)c1ccc(S(=O)(=O)N2CCCC2)cc1 [CBK264880] | 113.425 | –
16 | CCCc1nnc([C@H]2CCN(Cc3ccc(S(C)(=O)=O)cc3)C2)o1 [CBK289402] | 93.2974 | –
17 | Nc1ncc(-c2cccc3ccccc23)nc1NC1CCCCC1 [CBK063588] | 91.1914 | –
18 | CC1=CC(C)C(C(=O)O)C(C(=O)N2CCN(C)CC2)C1 (centres unmarked) [CBK027311] | – | 83.0906
19 | COc1cc(C)ccc1S(=O)(=O)n1cnc2cc(C)c(C)cc21 [CBK287580] | 74.2494 | –
20 | O=C(Nc1cccnc1)c1ncoc1-c1ccc(F)cc1 [CBK104357] | 95.9877 | –
21 | CCN(CC)CCNC(=O)N(CC)Cc1ccncc1 [CBK155151] | 95.9709 | –
22 | Cn1cc(C2CCCCCN2C(=O)c2ccc(F)cc2)cn1 (centres unmarked) [CBK284913] | 109.372 | –
23 | CCC(CNC(=O)c1coc(COc2ccc3sc(C)nc3c2)n1)OC (centres unmarked) [CBK307248] | 66.1227 | –
24 | COc1ccc(-c2ccc(CCC(=O)O)n2Cc2ccco2)cc1 [CBK265945] | 71.3326 | –
25 | CC1(C)C[C@H](NC(=O)C2CC2)[C@@]2(CCC(=O)N3CCCC3)CC[C@](C)(O)C[C@@H]12 [CBK289044] | 107.864 | –
26 | Cc1nnc2sc(-c3ccncc3)nn12 [CBK269553] | 88.0437 | –
27 | Cc1cc(C)n(CCCC(=O)NCCc2cn3ccccc3n2)n1 [CBK304414] | 93.8685 | –

Row | Structure (SMILES) | % of control remaining [1] | % of control remaining (total inclusion area, 28.5 h, 10 µM, inhibitor)
28 | Cc1nc(C2CC(O)C2)cc(N2CCC(C(=O)N3CCOCC3)CC2)n1 (centres unmarked) [CBK307675] | 19.8786 | –
29 | O=C(NCCOc1ccccc1)N1CCN(c2ccc(F)cc2)CC1 [CBK156416] | 102.072 | –
30 | COC(=O)c1cc(S(N)(=O)=O)c(C)o1 [CBK113185] | 95.3842 | –
31 | CCOC(=O)c1c(NC(=O)CSc2nc[nH]n2)sc2c1CCCCC2 [CBK267231] | 92.4981 | –
32 | CN(C)S(=O)(=O)N(CC(=O)N1CCN(Cc2ccc3c(c2)OCO3)CC1)c1ccccc1 [CBK267994] | 65.0959 | –
33 | O=C(NCCN1CCOCC1)c1cc(-c2ccccc2)on1 [CBK267479] | 104.646 | –
34 | [2H]C(C(=O)NCc1ccc2c(c1)CCC2)n1cc(-c2ccc(CN3CCC(C)CC3)cc2)nn1 (centres unmarked) [CBK166081-L1] | 51.4357 | –
35 | O=C(C1CCOCC1)N1CCCC(c2cc3cccnc3[nH]2)C1 (centres unmarked) [CBK284941] | 87.662 | –
36 | O=C(c1cccnc1)C1CCN(C(=O)Cc2ccsc2)CC1 [CBK283517] | 76.4059 | –
37 | Cc1cccc(C(=O)N2CCC(N(C)Cc3ccc(-c4ccc(S(C)(=O)=O)cc4)nc3)CC2)n1 [CBK165937T] | 77.0706 | –
38 | COCCCn1c(CCC(=O)O)ccc1-c1ccc(Br)cc1 [CBK268015] | 100.705 | –
39 | CCc1ccccc1OCC(=O)Nc1ccc([N+](=O)[O-])cc1OC [CBK265665] | 96.9309 | –
40 | Cc1ccccc1-n1ncc2c(=O)n(CC(=O)N3CCCCC3)cnc21 [CBK287688] | 125.165 | –
41 | CN1CCC2(CC1)NCCc1c2ccn1S(=O)(=O)c1cccc2c(N(C)C)cccc12 [CBK061633C] | 72.5419 | –
42 | O=C(O)c1cc(C=Cc2ccc(Cl)c([N+](=O)[O-])c2)nc2ccccc12 [CBK297495] | 69.6379 | –
43 | O=[N+]([O-])c1ccc(NCCNc2nc3ccccc3nc2N2CCOCC2)cc1 [CBK266342] | 82.1254 | –
44 | CCOC(=O)c1ccc(Cn2c(-c3ccccc3)nnc2-c2ccccc2)o1 [CBK267691] | 78.2359 | –
45 | Cc1nc2c(c(=O)n1C)CN(Cc1cc(=O)n3cccc(O)c3n1)C2 [CBK306991] | 67.1748 | –
46 | COc1ccccc1C(NC(=O)C1CCN(C(=O)OC(C)C)CC1)c1ccccn1 (centres unmarked) [CBK059649] | 77.772 | –
47 | Cc1ccc(NC2=N[C@H]3[C@@H](O)[C@H](O)C[C@H](C(=O)N4CCCCC4)[C@H]3S2)cc1 [CBK288951] | 91.1333 | –
48 | CSCCCNC(=O)N(C)C1CCN(C)C1 (centres unmarked) [CBK155995] | 106.183 | –
49 | O=C1NCCCC12CCN(Cc1cccc3cccnc13)CC2 [CBK284826] | 107.38 | –
50 | Nc1n[nH]c(=O)c2c1ncn2[C@H]1C[C@@H](O)[C@@H](CO)O1 [CBK201169] | 131.561 | –
51 | CCCCOc1ccc(C(=O)N(C)c2ccc(CCC)cc2)cc1 [CBK161619] | 56.7064 | –
52 | Cc1nn(C)c(C)c1CC(=O)N1CCc2c(sc3ncnc(N)c23)C1 [CBK306065] | 65.8221 | –
53 | CC(C)c1ccc(S(=O)(=O)N(CCC#N)Cc2ccccc2)cc1 [CBK043565] | 87.9037 | –
54 | Cc1cc(CNC(=O)C2CC(=O)N(Cc3ccccn3)C2)ccc1F (centres unmarked) [CBK305557] | 91.0306 | –

Row | Structure (SMILES) | % of control remaining [1] | % of control remaining (total inclusion area, 28.5 h, 10 µM, inhibitor)
55 | C=CCn1c(-c2sc(NC(=O)CNC(=O)C(C)(C)C)nc2C)n[nH]c1=S [CBK297907] | 61.1427 | –
56 | Cn1c(CNc2ccccc2C(=O)O)c(C#N)c2ccccc21 [CBK286977] | 103.475 | –
57 | Cc1ccc2[nH]c(SCC(=O)Nc3ccc(C(=O)O)cc3)nc2c1 [CBK297526] | 90.3886 | –
58 | Cc1ccc(CC(=O)N2CCc3nn(C(C)C)c(=O)cc3C2)cc1 [CBK284499] | 109.886 | –
59 | COC(=O)[C@@H]1CN(C(=O)c2cccs2)C[C@H]1c1ccc(OC)cc1 [CBK283725] | 93.6521 | –
60 | Cc1cccc(NC(=O)[C@@H](NC(=O)c2ccccc2F)C(C)C)c1C [CBK297509] | 88.771 | –
61 | CN1CCN(c2nc(-c3ccco3)cnc2N)CC1 [CBK063449] | 108.236 | –
62 | COc1ccccc1CC(=O)N(Cc1cccnc1)C[C@@H]1CCC(=O)N1 [CBK307504] | 85.4429 | –
63 | O=C(O)CCC(=O)N1N=C(c2ccccc2)CC1c1ccc2nccnc2c1 (centres unmarked) [CBK266650] | 87.726 | –
64 | O=C(Cc1c[nH]c2ccccc12)Nc1ccccc1N1CCNCC1 [CBK028288T] | 92.6214 | –
65 | Cc1nc2sccn2c1CN1CCc2sccc2C1C (centres unmarked) [CBK282807] | 91.5748 | –
66 | Cc1sc2ncnc(N3CCCC3Cn3cccn3)c2c1C (centres unmarked) [CBK304570] | 30.8225 | –
67 | CC(C)N1CCC(CNC(=O)c2cc3ccccc3c(=O)s2)CC1 [CBK282711] | 140.884 | –
68 | O=C(NCc1ccccn1)Nc1ccc2c(c1)OCO2 [CBK267014] | 110.896 | –
69 | COCOc1ccc(-c2ncc(OCCN3CCCC3=O)nc2NC(C)=O)cc1 [CBK145253] | 88.3124 | –
70 | CN1N=C(c2ccccc2)CC1=O [CBK067774] | 91.0282 | –
71 | Cc1ccc(S(=O)(=O)NC2c3cccc4cccc(c34)C2Sc2nncn2N)cc1 (centres unmarked) [CBK265873] | 83.9034 | –
72 | Cc1cc(Cl)c(OCCn2c3ccccc3c3ccccc32)c(Br)c1 [CBK264826] | 104.634 | –
73 | C#CCOc1ccc(/C=C2/SC(=S)N(CCC(=O)O)C2=O)cc1 [CBK265667] | 104.504 | –
74 | NC(=O)CN1CCCc2ccccc21 [CBK138343] | 86.4766 | –
75 | CCOC(=O)c1c(NC(=O)CSc2nc3ccccc3s2)sc2c1CCC2 [CBK263220] | 126.223 | –
76 | COCCNC(=O)c1sc2ccccc2c1C1CCN(Cc2ccc3ncccc3c2)C1 (centres unmarked) [CBK285680] | 96.5024 | –
77 | O=C(Nc1ccc2oc(-c3ccccc3)nc2c1)C1CCCO1 (centres unmarked) [CBK107724] | 110.319 | –
78 | Cc1ccc(S(=O)(=O)N(CCO)CC(O)Cn2c3ccc(Cl)cc3c3cc(Cl)ccc32)cc1 (centres unmarked) [CBK263392] | 72.4165 | –
79 | O=C(NC(=S)Nc1ccc2oc(-c3cncc(Br)c3)nc2c1)c1cc([N+](=O)[O-])ccc1N1CCOCC1 [CBK268864] | 82.503 | –
80 | CCc1c(Cc2[nH]c(C)c(C(C)=O)c2C)[nH]c(C(=O)O)c1C [CBK286717] | 74.957 | –
